Laboratory results taken from the supplement of paper PMC3334620.
The full ranking holds about 33,000 sequences; the median of “E-score (-0.5 to 0.5)” is about -0.017, and the highest 2% start at about 0.3. The list shows a part of the results.

Target: T1, Sut1 (UniProt P53032)
T1 sequence: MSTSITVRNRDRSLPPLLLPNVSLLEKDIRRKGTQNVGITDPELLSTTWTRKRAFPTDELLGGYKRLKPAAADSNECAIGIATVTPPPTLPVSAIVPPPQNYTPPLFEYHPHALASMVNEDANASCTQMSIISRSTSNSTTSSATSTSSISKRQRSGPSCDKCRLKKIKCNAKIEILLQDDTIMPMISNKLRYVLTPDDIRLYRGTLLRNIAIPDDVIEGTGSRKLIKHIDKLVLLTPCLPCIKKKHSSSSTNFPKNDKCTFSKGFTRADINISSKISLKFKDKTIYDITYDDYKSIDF
Assay: PBM E-score (8-mer binding enrichment) (E-score (-0.5 to 0.5)); higher = stronger / more preferred TF binding; most listed sequences are background and not binding sites
Settings: protein concentration: 200 nM; construct: GST-full length
Description: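 Universal 'all 10-mer' protein binding microarrays (Agilent AMADID 015681) probed with GST-tagged S. cerevisiae TFs (full-length or DBD) made by in vitro transcription/translation (PURExpress), about 100-200 nM. Bound TF was detected with fluorescent anti-GST. Each ungapped 8-mer (which stands for itself and its reverse complement) is scored by the PBM enrichment score (E-score), a modified Wilcoxon-Mann-Whitney statistic from -0.5 to +0.5, computed with the Universal PBM Analysis Suite. Scale: above 0.35 generally sequence-specific binding.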

Sequence	PBM E-score
CGGAGGCC	-0.0941
CTTACGCA	-0.0106
AATACGTC	0.195
ATTCCGAG	0.341
AAGCATTC	0.0319
CGGGGACC	-0.0538
GACAAAAC	0.224
ATTTATGC	0.137
CTAAGGAC	-0.0474
TTAAGTAA	0.221
AGGCGTCA	-0.281
AGTGTATG	0.14
CAGGTTCG	-0.0044
AGACTACA	-0.132
AATCGTCT	-0.113
ACGCTTAG	0.121
ACGTAGTA	-0.139
ACGGGCGA	-0.237
AGTGCCAG	-0.325
ACTGATGG	-0.152
ACAGGTGC	-0.123
CACGAAGA	-0.0196
ATGTCATC	-0.082
CCGGTACA	0.0825
CAACAGCC	-0.13

Sequence	PBM E-score
ACCGTGAA	0.00123
AGCCTACA	0.00657
AGGGCATG	-0.194
CACTCGCC	-0.0552
GGGCCTGA	-0.288
CAGACTCG	-0.26
ATCTAGCC	-0.141
ACATTGAA	0.0921
GGGGCGCA	-0.366
ACACGCTC	0.0804
ATTAGCTC	0.095
CCGCACCG	-0.0103
ATAACCTA	0.121
CTTGCCGA	-0.0407
ACCTCAGC	-0.106
AAGGAATG	-0.0323
AATATGAG	0.14
ATCTTCAA	0.231
CGTACAGA	0.00189
GACGAATA	0.177
TCCTCGCA	-0.241
CAAAGATG	0.0218
CCATCCTC	-0.0771
AGTCCTGG	-0.291
AGCACTCG	-0.0717

Sequence	PBM E-score
CGCATCTC	-0.0996
ACCCGTCG	-0.319
AGGAAAGA	0.0593
AACTTTGA	0.0923
ATCAAGAC	-0.0472
AGTTTGAC	0.0556
CCACTTCC	-0.0469
ACGGATAA	0.103
CGCGGAAA	0.061
CAGCGACA	-0.222
GACCCATC	-0.141
GAAACACA	0.206
CATTTCGG	0.00789
CGCAGAAC	-0.0566
CTGCTGCA	-0.131
CTCTACGA	-0.147
AGCCTCCG	0.0179
TACATAGA	0.193
CAGTGTCA	-0.137
CCACGCTA	-0.189
ACAGGTTG	-0.155
CCGTTTCA	0.168
AACCGGCG	-0.0227
GTCTCACA	0.0297
AGAGGGGA	-0.113

Sequence	PBM E-score
AAGTCATA	0.077
GATACTAA	0.141
GATTGGAA	0.135
ACGCAAGA	0.00812
GCAACCGC	-0.132
ATGGAAAG	0.116
TCCTCAAA	-0.0389
CGCTCCCC	-0.416
AGGGTAAT	0.00404
ACGATTCA	0.023
TATGCAAA	-0.113
GGCCGACC	-0.234
AATGCATC	0.17
AACGGGCA	-0.0792
AGAATATA	0.117
AAATGCTA	0.0496
CTCACTAC	0.0485
AAAAAGCT	-0.0213
AATTAGAG	-0.0168
ACTCAGTG	-0.106
CCTCGTCA	0.0287
CCCTGTAA	-0.149
CTAGTTGA	0.0806
AGTCTAAG	0.23
CAGCTTGA	-0.11

Sequence	PBM E-score
ATTCTCAA	0.12
GCAGTTCC	0.00048
AGTACATA	0.134
ACACAGAC	0.0737
CGAGGGCG	-0.297
AGGTTAAA	0.0365
ACCATATC	0.075
ATATATGG	0.17
AGAGAGCC	-0.224
AGCATCTG	-0.219
ATGTTTTA	0.128
TAACCTGA	-0.0476
ACGGACGA	0.1
TTGATCAA	0.0321
GTTGCGGA	0.167
CCAAGCCC	-0.234
CAGTAACA	0.153
AGCTCTCC	-0.213
ACGAATCC	0.0809
TACAACCA	0.143
CTTTTATA	0.0778
CCTTACAG	-0.0957
CCGCAGTC	0.0158
ACCAGGCA	-0.235
TACTTAGA	0.0875

Sequence	PBM E-score
AGAGGGCC	-0.153
AAATTGGG	0.115
ATTCTACA	0.163
CTAACGCC	-0.0618
ATCAGTGG	-0.137
GTGGGATA	-0.0623
ACATTGGG	-0.0456
GCTATGTA	-0.129
CCATGAGA	0.00883
AGGGTTAT	-0.0349
AGTGCACA	-0.128
AATATGGC	-0.143
AGCCTGTC	-0.104
CAAAATGC	-0.0633
CCGAGTTC	0.0827
TCCGGGCA	0.255
ATAGGGCC	-0.144
TCCTAGAA	-0.118
CGATACGC	-0.125
CCTCGATC	0.00217
GAAACCAA	0.153
ACGTGCTG	-0.18
AAGCGCGC	0.105
GAGGAGAC	-0.0705
AGTGTTCA	0.165

Sequence	PBM E-score
CTGTGCCC	-0.251
ACCCGTCC	-0.28
GCCTCCAC	-0.248
AGCTCGTG	0.0432
AAACGTTT	0.156
CTGCACGA	-0.148
ACCGATCC	-0.0136
CCTTTAGC	-0.0413
CATACCGC	-0.182
GCATATGA	0.112
AAACAGTA	0.144
CGAGCCTA	-0.0841
AATGGGCG	-0.18
AAGAGTTA	0.12
ACGCGCTG	-0.0922
CCACGGTA	-0.115
TGGGGGAA	-0.285
GTCACCAA	-0.0973
AATGGGGA	-0.0922
GACACAAC	-0.102
CCCTATTA	-0.0365
ACAGGGTG	-0.226
ATCTCAAC	0.15
AGAGCGCG	-0.155
CAGGCCAA	-0.165

Sequence	PBM E-score
GAATCAGC	-0.104
AGTTAACT	0.218
CATGTCAA	-0.0254
CCAAAGCG	0.0511
ATATTGGG	0.0483
AATGACCC	-0.117
CCCCTATA	-0.216
AATACGCG	0.0191
TATCATCA	0.143
CATCGAAA	0.129
ACTCGATA	0.125
AATGTCGG	0.0666
ACAGAGCC	-0.063
CCGTGTCG	-0.117
GGCGTTAA	-0.0162
ACAGCGGT	-0.107
GTCAACTA	0.179
ATCACGGA	0.402
CTACGTCA	-0.255
CACGTTAG	-0.0671
CACCAATC	-0.0842
CTGGCAGA	-0.012
ACGAGTCT	-0.0823
GCCAGACC	-0.0239
CTACGGAG	0.381

Sequence	PBM E-score
CGGGATAG	-0.149
AGGGCTTG	-0.0777
CAAGCTAC	-0.134
ATCGTTTA	0.124
ATGCGCCC	-0.223
AGCTGGAG	-0.236
ATGAAGGG	0.00787
GACAGTAA	0.111
TGAATAAA	0.0668
CGTTGGGA	-0.0248
ACAACGAA	0.106
ACAATTCC	-0.0138
ACTGCAAT	-0.00458
GCCCAGGC	-0.179
CGCCGAAG	0.0368
ACCACTGG	-0.0781
CGACCACA	-0.0754
AGCAGCAG	-0.139
ACTCGCGA	0.05
GACGCGCC	-0.265
AACATAAT	0.27
GTGGTATA	0.0941
CAAAATGA	-0.00019
ATTATGGC	0.057
ACGAGCAA	-0.114

Sequence	PBM E-score
CCCCCTGA	-0.336
CCTTATCC	-0.177
AGGGGGCA	-0.32
ATCTGTTA	0.168
AAGAAACT	0.227
CGATCCCA	-0.0711
ACCATGAG	-0.166
AGATCCTC	-0.167
CAATTTTC	0.116
CTATCGTA	-0.0469
CAATGAAC	-0.0358
ACACCACG	-0.12
AGAGCTGC	-0.155
GATAATCC	0.126
AGTATAGC	-0.0323
ATGCTACA	-0.0501
CCTGCACG	-0.21
AAGGTAGC	-0.204
CGTAAGAA	0.0769
CTATTGAC	0.0306
ATAAGCCA	-0.103
CGCCCACA	-0.126
ACAGGTGG	-0.18
AGCGTTCG	-0.087
ATAGGGCG	-0.0768

Sequence	PBM E-score
TAAAGGAA	0.0683
CGTAGACC	-0.239
GACCATAA	-0.00944
AGTGCGTC	-0.103
CGCGTACA	-0.079
AACCACGC	-0.133
ACAGTTAC	0.108
CGGTCGGA	0.211
ACAATATC	0.126
CTATGGTA	0.0377
CCGCCGGA	0.223
GATTGTCC	0.0682
GCTCACGA	-0.0641
ATGCTGTC	-0.166
ATGCGTGA	-0.092
AACCAAGC	0.023
CATTACTC	-0.0016
AGGAGCAG	-0.278
AAACCATT	0.0591
GTAATGAA	0.105
ATCACCGG	0.0777
ATTCCGTA	0.296
ATTTGGTG	-0.0427
ACCATGTA	0.12
GCTTAAAC	0.0611

Sequence	PBM E-score
CCGCATAG	-0.113
CTCGCCAA	0.0328
GAGAACGC	-0.0454
CCTGAGTC	-0.119
ATGTGCCC	-0.159
ACACATGG	-0.146
CTAAGGAA	0.0416
GTGAGGCA	0.0696
CCCCCTCC	-0.325
CTGCTCGA	-0.271
AAACTCGA	-0.0156
AGGTCCAG	-0.0827
CAGAAGAC	-0.17
CGCGTGCC	-0.0161
ACCATATG	-0.0878
TAGCCCCA	-0.121
CTTTGCTA	-0.0601
CGCCGTAA	0.0597
GCGTTTAC	-0.0629
AAGTCCCT	-0.131
GGAGAAGA	0.00674
TCCCCTCA	-0.188
AGGAGAGG	-0.264
AGGCAGGG	-0.133
ATAGGAAT	0.0366

Sequence	PBM E-score
CAGCGAGC	-0.155
GAAGCCCC	-0.24
GAAATACC	0.138
CAGCATGG	-0.251
CTTCATGA	0.0102
ATATGACC	-0.121
AGCCCGCC	-0.168
GAACGCTC	-0.157
AGCAATCA	0.0713
ACGCACCC	-0.254
CTACGTTC	-0.103
ATCAGAAT	0.0989
CTCTGTAC	-0.079
GTCTCCAA	-0.0301
CCTCCTAC	-0.165
GTACTAAA	0.266
CCGACGTA	-0.0314
ACACTAAC	0.168
CACACCCA	-0.114
ACTAGTGC	0.0535
ATTTTTGG	-0.0383
CGATAGAC	-0.206
ATCGCCCC	-0.291
CTTACTAC	0.0954
CAGGACTG	-0.291

Sequence	PBM E-score
GGAGGGAC	-0.137
CACCCGGA	0.251
CCCCGGAC	0.357
CAACGGAG	0.399
CCACTCAG	-0.159
CTTACAGC	-0.179
GTCGTCTA	0.0145
AGTAAACA	0.235
AGGCCTCA	-0.304
CAAGAAGC	0.0616
CGAACGCG	-0.115
TCCCTCGA	-0.267
CGTTTCGC	0.0561
GCAACTAA	0.146
AGGGGACT	-0.186
GAGTTAGC	0.121
ACCTTTGG	-0.287
GTGCGCAA	-0.122
ACTAACGA	-0.0331
